# Assay results: paper PMC6919601, “Identification of Plasmodium dipeptidyl aminopeptidase allosteric inhibitors by high throughput screening” (PLoS ONE, 2019)
# Hit rate of the full screen: of about 110,000 compounds, about 230 (0.21%) showed an effect of 50% or more. Some of the results follow.
# Molecular target: DPAP1 (Plasmodium falciparum, UniProt Q8IIJ9)
# Assay: primary screen, percent inhibition; read by cleavage of a fluorogenic dipeptide substrate; higher = more effect of the substance
# Parameters: species or system P. falciparum D10 trophozoite lysates; single well
# 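Note: 30 min substrate incubation versus DMSO and 10 µM JCP410 controls.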
# Chain of DPAP1 (Q8IIJ9 whole entry, looked up): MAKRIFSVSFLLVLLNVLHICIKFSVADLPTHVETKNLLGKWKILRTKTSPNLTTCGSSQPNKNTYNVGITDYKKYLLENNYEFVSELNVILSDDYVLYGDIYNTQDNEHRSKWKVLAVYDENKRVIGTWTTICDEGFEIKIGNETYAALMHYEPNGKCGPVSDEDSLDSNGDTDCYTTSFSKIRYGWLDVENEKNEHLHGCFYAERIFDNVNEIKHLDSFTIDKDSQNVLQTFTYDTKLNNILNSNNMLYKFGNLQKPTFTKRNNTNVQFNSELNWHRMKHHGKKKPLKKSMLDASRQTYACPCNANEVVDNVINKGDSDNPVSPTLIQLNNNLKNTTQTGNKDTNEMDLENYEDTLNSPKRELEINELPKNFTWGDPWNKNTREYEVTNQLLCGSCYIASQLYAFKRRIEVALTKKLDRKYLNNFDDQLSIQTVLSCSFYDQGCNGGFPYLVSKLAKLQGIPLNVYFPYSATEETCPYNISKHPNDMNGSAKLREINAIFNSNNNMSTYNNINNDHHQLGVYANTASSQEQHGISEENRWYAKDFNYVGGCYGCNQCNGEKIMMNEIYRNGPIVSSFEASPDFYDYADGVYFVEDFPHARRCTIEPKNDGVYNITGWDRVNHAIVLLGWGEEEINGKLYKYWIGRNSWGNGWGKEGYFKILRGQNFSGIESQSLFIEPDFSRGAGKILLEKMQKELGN
row,Structure (SMILES),% Inhibition @ 10 uM [%]
1,CCn1c(C(=O)NCc2ccc(F)cc2)cc2sc(Cl)cc21,-4.85
2,O=c1c(Cc2ccccc2)c(O)cc(-c2ccncc2)n1-c1ccc(Cl)cc1,0.674
3,CCOC(=O)CCS(=O)(=O)c1ccc(Cl)c(Cl)c1,1.42
4,CC(=O)N1CCC(N2CCN(c3ccccc3)CC2)CC1,-0.0648
5,c1ccc(CC2CCN(c3ncnc4sc5c(c34)CCCC5)CC2)cc1,2.92
6,CCN(CCCNC(=O)c1sc2nc3n(c(=O)c2c1C)CCCCC3)Cc1ccccc1,1.79
7,CC(=O)C(C(C)=O)=C(N)N1CCN(Cc2ccccc2)CC1,3.42
8,Cc1ccc2[nH]c(C)c(/C=C3/C(=N)N4C(=NC3=O)SN=C4S(=O)(=O)CC(C)C)c2c1,-1.58
9,Cc1c(C(=O)O)oc2ccc(S(=O)(=O)NCc3ccccc3)cc12,-5.92
10,COCCNC(=O)CCc1c(C)nc2c(c(C)nn2-c2ccccc2)c1C,0.953
11,Cn1c(/C(C#N)=C/c2ccccc2)nc2ccccc21,5.94
12,CCOc1ccc(-c2nocc2C#N)cc1,-3.27
13,Cc1ccc(F)c(NC(=O)c2cc(C(F)(F)F)nn2C)c1,-4.01
14,COc1ccc(-c2cc(C(F)(F)F)nc(SCC(=O)NCCCN3CCCC3=O)n2)cc1OC,7.94
15,COc1ccc(C(=O)NC2=C(C(=O)c3ccccc3)N(C)S(=O)(=O)c3ccccc32)cc1,0.275
16,OCCCc1ccc(C(O)(C(F)(F)F)C(F)(F)F)o1,1.29
17,O=C(NCCN1CCN(Cc2ccccc2Cl)CC1)C(=O)NCc1ccccc1,-0.597
18,O=C(O)C(Cc1ccc(O)cc1)c1ccccc1 (stereo not drawn),1.57
19,CCOc1ccc(NC(=O)CN2C(=O)S/C(=C/c3ccc(O)cc3)C2=O)cc1,8.03
20,N#CC1=C(N)Oc2cc(Nc3ccccc3)ccc2C1c1ccccc1 (stereo not drawn),-0.99
21,O=c1c2ccccc2nc(-c2ccccc2)n1-c1ccccn1,-4.39
22,COc1ccc(OC)c(CCNCc2c(C(=O)O)n(Cc3ccc(Cl)cc3)c3ccccc23)c1,0.277
23,O=C(NC1CCCCC1)N1CCCCCCC1,-0.551
24,O=C(c1cccc(C(=O)N2CCN(c3cccc(Cl)c3)CC2)c1)N1CCN(c2cccc(Cl)c2)CC1,-2.78
25,Cc1oc2c(c(C)cc3oc(=O)c(CC(=O)O)c(C)c32)c1C,0.558

row,Structure (SMILES),% Inhibition @ 10 uM [%]
1,O=C(CCn1nc(-c2ccccc2)c2ccccc2c1=O)NCc1ccccc1,0.565
2,CCOC(=O)c1cnc2c(C(F)(F)F)cccc2c1NCc1ccccc1,4.74
3,O=C(CNS(=O)(=O)c1ccc(Br)cc1)Nc1ccc2c(c1)OCCO2,38.9
4,Cc1cc(O)c(C2=NCCSC(c3ccc(C(C)C)cc3)C2)c(=O)o1 (stereo not drawn),6.43
5,Cc1ccc(OCCOc2ccc(C=C3C(=O)NC(=O)NC3=O)cc2)cc1,-2.26
6,Cc1cc(F)ccc1-c1ccc(C(=O)N[C@@H](CC(C)C)C(=O)NCC#N)cc1,-3.04
7,N#CC1=C(N)N(c2cccnc2)C2=C(C(=O)CCC2)C1c1ccc(F)cc1 (stereo not drawn),-2.87
8,C=CCNC(=O)C(=O)NCCc1c[nH]c2ccccc12,3.25
9,COCc1cc(C)nc(SCC(=O)NC2CCCCC2)c1C#N,-4.77
10,CNc1nc(Nc2ccc(C(C)=O)cc2)nc(OC(C(F)(F)F)C(F)(F)F)n1,7.96
11,CC(CC(=O)O)n1ccnc1 (stereo not drawn),-4.27
12,COc1cc2nc(S)nc(NCCc3ccc(Cl)cc3)c2cc1OC,5.58
13,CCCOC(=O)c1ccc(NC(=O)c2ccc(Cn3cc(Br)cn3)cc2)cc1,0.431
14,CCOc1ccccc1C(=O)Nc1c(C(=O)NC(C)(C)C)oc2ccccc12,5.25
15,CC1CCCC(C)N1C(=O)Cc1noc2ccccc12 (stereo not drawn),3.98
16,Cc1ccc(NC2=NC(=O)C(CC(=O)Nc3ccccc3)S2)cc1Cl (stereo not drawn),-1.95
17,c1ccc(C2CCC(NCc3ccncc3)CC2)cc1 (stereo not drawn),97.8
18,O=C(c1ccc(-c2ccccc2)cc1)N1CCN(c2ccc([N+](=O)[O-])cc2)CC1,3.1
19,COCCOC(=O)Nc1nc2sc3c(c2s1)CCCC3,3.25
20,CC(=O)Nc1ccc(S(=O)(=O)Nc2cccc(F)c2)cc1,-7.5
21,O=C1C(Cl)=C(N2CCN(c3ccccc3)CC2)C(=O)N1c1cccc(Cl)c1,-5.07
22,O=C(O)CCc1nc(O)c2c3c(sc2n1)CCC3,21.2
23,CCCN1C(C(=O)c2ccccc2)=C(OC(=O)c2ccc(Cl)cc2)c2ccccc2S1(=O)=O,-2.99
24,O=c1[nH]n(-c2ccc([N+](=O)[O-])cc2)c(=O)c2ccccc12,1.7
25,COCCCNC(=O)Cn1cnc2sc(C)c(S(=O)(=O)N3CC(C)CC(C)C3)c2c1=O (stereo not drawn),-5

row,Structure (SMILES),% Inhibition @ 10 uM [%]
1,Cc1cc2c(n1-c1ccc(C(=O)NC(C)C)cc1)CCCC2,-3.53
2,COc1ccc(-c2nn(C)c3sc(C(=O)N4CCOCC4)cc23)cc1OC,2.9
3,COC(=O)c1ccc(C(=O)N(CCN(C)C)c2nc3ccc(F)cc3s2)cc1,1.71
4,Cc1cc(OCC(=O)Nc2ccc(S(=O)(=O)N3CCCCC3)cc2)ccc1Br,-3.43
5,Cc1[nH]nc2c1C(c1ccc(OCc3ccccc3)cc1)C(C#N)=C(N)O2 (stereo not drawn),-0.759
6,CC(C)(C)OC(=O)N1CC(=O)C(NC(=O)C(CC(=O)N2CCOCC2)CS(=O)(=O)Cc2ccccc2)C1 (stereo not drawn),4.33
7,COc1ccc(OCC(=O)N2CCc3ccccc32)cc1,0.59
8,CC(C)c1ccc(/C=C2\C(=O)NC(=S)N(c3cccc(Cl)c3)C2=O)cc1,4.52
9,Cc1ccc(Cn2c3ccccc3c3cnn(CC(=O)N4CCCC4)c(=O)c32)cc1,3.3
10,COC(=O)C(O)(c1ccc(N(C)C)cc1)C(F)(F)F (stereo not drawn),-2.44
11,Fc1ccccc1OCCCCCCN1CCCCC1,-3.94
12,CCCCOc1ccc(S(=O)(=O)NCc2cn3ccsc3n2)cc1,-0.72
13,O=C(O)CCCNC(=O)c1ccc2c(c1)OCCO2,2.33
14,COc1ccc(OCC(=O)NC2CC(C)(C)NC(C)(C)C2)cc1,2.03
15,Cc1cc(OCC(=O)Nc2ccc(S(=O)(=O)N3CCCC3)cc2)c(C(C)C)cc1Br,-4.86
16,COc1ccc(/C=C2N=C(/C=C/c3ccccc3)OC/2=O)c(OC)c1,-3.83
17,COc1ccc(C(=N)NOC(=O)COc2ccc(Br)c(C)c2)cc1,-3.21
18,Cc1[nH]c2ccccc2c1/C=C(/C#N)C(=O)NCc1ccccc1,0.392
19,CCc1cccc(C)c1NC(=O)C1CC(=O)N(c2ccc(C)c(C)c2)C1 (stereo not drawn),-5.3
20,CSc1ccccc1NC(=O)C(C)NS(=O)(=O)c1ccc(C)cc1 (stereo not drawn),3.42
21,CCOc1ccc(NC(=O)C2C3C=CC(C3)C2C(=O)Nc2ccc(OCC)cc2)cc1 (stereo not drawn),-1.28
22,Cc1ccc(C(=O)NCc2nnc(SCC(=O)Nc3nccs3)n2-c2ccccc2)cc1C,-4.97
23,Cc1cn(C(c2ccccc2)c2ccccc2)c(=O)[nH]c1=O,-0.834
24,CC1CCc2c(sc3nnn(CCCCOc4ccccc4)c(=O)c23)C1 (stereo not drawn),-0.946
25,Cc1ccc2nc(-c3ccc(N4C(=O)CC(N5CCN(CCO)CC5)C4=O)cc3)sc2c1 (stereo not drawn),2.79

row,Structure (SMILES),% Inhibition @ 10 uM [%]
1,Cc1cc2c(c(=O)o1)C(c1cccnc1)C(C#N)=C(N)O2 (stereo not drawn),4.73
2,CCOc1ccc(-n2c(C)cc(/C=C3/C(=N)N4C=C(C)SC4=NC3=O)c2C)cc1,-1.4
3,CC1(C)CC2CC(C)(CN2C2CCN(CCc3ccccc3)CC2)C1 (stereo not drawn),1.08
4,COCCCNC(=O)/C(C#N)=C/c1c(Oc2ccc(Cl)cc2)nc2ccccn2c1=O,-9.75
5,Cc1c(CNc2ccc(F)c(F)c2)c(=O)n(-c2ccccc2)n1C,-3.27
6,O=C(CCc1nc2cccnc2n1-c1ccccc1)N1CCC(Cc2ccccc2)CC1,-3.45
7,CCC(=O)N1N=C2CC(C)(C)OCC2C1c1ccccc1 (stereo not drawn),-0.0938
8,O=C(O)c1nn2c(C(F)(F)F)cc(-c3ccc(Br)cc3)nc2c1Br,2.81
9,Cc1nc2sccn2c(=O)c1S(=O)(=O)NCCc1ccc(Cl)cc1,1.68
10,Cc1ccc(NC(=O)C2CCCCC2C(=O)O)nc1 (stereo not drawn),-1.88
11,Oc1ccc(O)c(C2CC3CCC2C3)c1 (stereo not drawn),-1.99
12,CC(=O)c1cccc(NC(=O)c2cnn(-c3ccccc3)c2C)c1,2.64
13,CCCCC(=O)N1CCN(c2nc(Cc3ccccc3)c3c(c2C#N)CC(C)(C)OC3)CC1,-2.78
14,Cc1ccccc1Cn1c(-c2cncs2)nc2ccccc21,-0.169
15,COc1ccc(OCCCC(=O)Nc2ccc(Br)cc2)cc1,4.76
16,CCc1nnc(NC(=O)CSc2ccc3nnc(-c4cccs4)n3n2)s1,1.13
17,OCC1CCCCN1C/C=C/c1ccccc1 (stereo not drawn),-4.75
18,c1ccc(CSc2nccn2Cc2ccccc2)cc1,-1.97
19,CCCCOC(=O)C1=C(C)NC(=O)NC1c1ccc(O)cc1 (stereo not drawn),-7.18
20,CC(C)OC(=O)c1ccc2[nH]c3c(c2c1)CCCC3,-6.55
21,CCNc1ncnc2c1cnn2-c1ccc(C)c(C)c1,-1.79
22,O=C(CN1C(=O)c2cccc3cccc(c23)C1=O)N1CCN(c2ccccc2)CC1,-5.06
23,O=C(c1cc2c(Cl)nc3ccccc3c2s1)N1CCN(Cc2ccc3c(c2)OCO3)CC1,-1.54
24,CCCCOc1ccc(CN2CCN(CCOCCO)CC2)cc1,-4.04
